Assay results: publication PMC5700166
The entries are a selection whose mix differs from that of the whole data set. For some of these results: The list includes weakly bound sequences.

Legend:
Experiment in all cases: protein-binding microarray (PBM)
Settings in all cases: PBM: ~300 nM protein, 6 mM HEPES pH 7.8, 80 mM KCl, 0.5 mM EDTA, 0.5 mM EGTA, 6% glycerol, 35 ng/ul poly-dIdC, 1% milk, 1 h, room temperature; Ap Aiptasia and Nv Nematostella (sea anemones) / Co Capsaspora / Aq Amphimedon (sponge) / Dm Drosophila / Hu human; RHD is the Rel homology domain; high values mean tight binding; most listed sequences are background and not binding sites; double strand, one strand shown
[1] = biological target: T1, GST-Co-NF-kB (UniProt F1ARL5)
T1 sequence: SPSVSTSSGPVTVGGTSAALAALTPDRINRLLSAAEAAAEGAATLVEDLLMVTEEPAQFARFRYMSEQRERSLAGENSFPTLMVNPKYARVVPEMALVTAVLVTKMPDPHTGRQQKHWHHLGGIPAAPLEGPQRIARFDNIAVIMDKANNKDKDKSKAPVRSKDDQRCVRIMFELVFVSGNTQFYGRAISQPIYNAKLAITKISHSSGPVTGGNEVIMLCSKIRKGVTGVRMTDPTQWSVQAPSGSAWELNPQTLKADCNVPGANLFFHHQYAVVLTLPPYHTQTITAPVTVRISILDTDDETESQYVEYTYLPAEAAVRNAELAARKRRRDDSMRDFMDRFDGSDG

[2] = biological target: T2, GST-Aq-NF-kB (UniProt A9Y5G7)
T2 sequence: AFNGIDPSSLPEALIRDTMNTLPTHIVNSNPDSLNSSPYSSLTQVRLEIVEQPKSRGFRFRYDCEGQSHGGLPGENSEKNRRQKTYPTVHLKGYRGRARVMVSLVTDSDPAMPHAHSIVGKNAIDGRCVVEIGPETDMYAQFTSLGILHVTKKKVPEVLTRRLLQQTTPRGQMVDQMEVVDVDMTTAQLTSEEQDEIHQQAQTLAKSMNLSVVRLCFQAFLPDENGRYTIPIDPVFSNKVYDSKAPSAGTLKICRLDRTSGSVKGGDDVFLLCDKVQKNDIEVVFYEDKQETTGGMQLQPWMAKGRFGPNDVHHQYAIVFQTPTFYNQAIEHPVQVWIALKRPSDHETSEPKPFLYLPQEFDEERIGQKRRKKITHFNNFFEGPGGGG

[3] = biological target: T3, GST-Dm-Relish (UniProt Q94527)
T3 sequence: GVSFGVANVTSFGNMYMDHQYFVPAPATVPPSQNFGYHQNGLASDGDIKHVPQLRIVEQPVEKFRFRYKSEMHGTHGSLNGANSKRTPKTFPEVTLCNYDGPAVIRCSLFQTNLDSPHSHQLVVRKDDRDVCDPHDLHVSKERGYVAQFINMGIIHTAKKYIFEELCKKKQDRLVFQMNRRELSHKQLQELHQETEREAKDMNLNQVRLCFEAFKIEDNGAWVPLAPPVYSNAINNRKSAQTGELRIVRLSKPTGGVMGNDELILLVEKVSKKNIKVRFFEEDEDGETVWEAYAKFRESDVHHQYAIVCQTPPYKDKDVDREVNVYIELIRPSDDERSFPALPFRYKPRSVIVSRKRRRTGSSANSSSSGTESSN

Sequence	binding signal [1] [z-score]	binding signal [2] [z-score]	binding signal [3] [z-score]
CCGATTAACATCAGGGGGAAGAATGATGTTAATCGGGTCTTGATTCGCTTGACGCTGCTG	9.93	4.87	
CCGATTAACATCACCGGGGATAGTGATGTTAATCGGGTCTTGATTCGCTTGACGCTGCTG	3.83	1.82	
CCGATTAACATCAGGGATTACCATGATGTTAATCGGGTCTTGATTCGCTTGACGCTGCTG	1.11	3.67	
CCGATTAACATCAGGGGGTTAACTGATGTTAATCGGGTCTTGATTCGCTTGACGCTGCTG	2.64	5.06	
CCGATTAACATCACTTCCCCCCCTGATGTTAATCGGGTCTTGATTCGCTTGACGCTGCTG	8	4.94	
CCGATTAACATCAGGGGAGTAAATGATGTTAATCGGGTCTTGATTCGCTTGACGCTGCTG	4.51	3	
CCGATTAACATCAGAAAATCACCTGATGTTAATCGGGTCTTGATTCGCTTGACGCTGCTG	0.765	3.39	
CCGATTAACATCAATTCCCCCCATGATGTTAATCGGGTCTTGATTCGCTTGACGCTGCTG	9.55	5.8	
CCGATTAACATCAGGAAACCACCTGATGTTAATCGGGTCTTGATTCGCTTGACGCTGCTG	0.258	6.62	
CCGATTAACATCAGGGCCTTTTGTGATGTTAATCGGGTCTTGATTCGCTTGACGCTGCTG	0.114	2.46	
CCGATTAACATCAGGGGTATACCTGATGTTAATCGGGTCTTGATTCGCTTGACGCTGCTG	3.98	4.94	
CCGATTAACATCAGGGGAAACTATGATGTTAATCGGGTCTTGATTCGCTTGACGCTGCTG	9.61	5.53	
CCGATTAACATCACGGGACCCCCTGATGTTAATCGGGTCTTGATTCGCTTGACGCTGCTG	1.75	3.7	
CCGATTAACATCAGGAAGTCCCATGATGTTAATCGGGTCTTGATTCGCTTGACGCTGCTG	0.513	4.99	
CCGATTAACATCAAATTCTCCCCTGATGTTAATCGGGTCTTGATTCGCTTGACGCTGCTG	8.72	5.21	
CCGATTAACATCAAATTCCCAAATGATGTTAATCGGGTCTTGATTCGCTTGACGCTGCTG	2.55	2.31	
CCGATTAACATCAGGAGTTCCCATGATGTTAATCGGGTCTTGATTCGCTTGACGCTGCTG	1.68	3.51	
CCGATTAACATCACAATTTTCCCTGATGTTAATCGGGTCTTGATTCGCTTGACGCTGCTG	5.61	5.58	
CCGATTAACATCACGGGAATCCCTGATGTTAATCGGGTCTTGATTCGCTTGACGCTGCTG	3.81	7.15	10.1
CCGATTAACATCAGAATCTCCCCTGATGTTAATCGGGTCTTGATTCGCTTGACGCTGCTG	6.25	5.81	3.02
CCGATTAACATCAAACGTTCCCCTGATGTTAATCGGGTCTTGATTCGCTTGACGCTGCTG		4.66	3.29
CCGATTAACATCAGGCAATCCCCTGATGTTAATCGGGTCTTGATTCGCTTGACGCTGCTG	1.6	7.01	6.78
CCGATTAACATCAGGGAAGGCCCTGATGTTAATCGGGTCTTGATTCGCTTGACGCTGCTG	0.185	6.45	8.94
CCGATTAACATCAGAAATTTCCCTGATGTTAATCGGGTCTTGATTCGCTTGACGCTGCTG	5.21	7.73	4.81
CCGATTAACATCACAAAAACCCCTGATGTTAATCGGGTCTTGATTCGCTTGACGCTGCTG	2.92	6.48	8.1
CCGATTAACATCAGGAATTACCATGATGTTAATCGGGTCTTGATTCGCTTGACGCTGCTG	0.247	3	4.62
CCGATTAACATCAAAAATCCCGATGATGTTAATCGGGTCTTGATTCGCTTGACGCTGCTG		4.05	6.2
CCGATTAACATCAGGAAGCTCCCTGATGTTAATCGGGTCTTGATTCGCTTGACGCTGCTG	-0.233	3.72	-0.142
